The supplement of paper PMC10126150
Values marked as one replicate rest on one cluster of the flow cell; about a third of the high ones do not repeat.
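Note: ATP exposure 15 min at 22 °C before imaging.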

What follows are sequences tested on ATP (assay: switch fluorescence ratio, 500 uM ATP over buffer (Cy3 cluster intensity, sum of 5 cycles each) (fold (ratio)); higher = stronger signal-on switching upon ATP binding; sequences stand for … in TCGTCGGCAGCGTCAGATGTGTATAAGAGACAGTTTTTTTTTTTTTTTTTTTTTTTTT…TC). Details: aptamer strand: ATP DNA aptamer (quencher-CACCTGGGGGAGTATTGCGGAGGAAGG + anchor), 100 nM annealed; ATP concentration: 500 uM; one replicate.
Method in brief: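 Per cluster, summed Cy3 intensity from the target cycles was divided by that from the buffer cycles to give the fluorescence ratio, then averaged per switch-domain sequence. Clusters outside 100-1000 RFU were excluded. The Cy3-labelled switching-strand clusters, on a modified Illumina MiSeq flow-cell, were annealed to 100 nM quencher-labelled ATP aptamer and imaged in selection buffer, then after 15 min with 500 uM ATP at 22 °C, for five cycles with NaOH stripping and re-annealing between them.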
CCGAAAGTAG was tested, and the switch fluorescence ratio was 1.79. With CCGAAATCAG the switch fluorescence ratio was 1.68. In the case of CCGAAGAGAG, the switch fluorescence ratio was 1.55. In the case of CCGAAGGCAA, the switch fluorescence ratio was 3.94. CCGAATCCTG was tested, and the switch fluorescence ratio was 1.05. In the case of CCGAATGAGT, the switch fluorescence ratio was 1.02. In the case of CCGAATTTGG, the switch fluorescence ratio was 1.07. Sequence CCGACATTTG has a switch fluorescence ratio of 0.98. Sequence CCGACGGACG has a switch fluorescence ratio of 1.1. CCGACGGGAG gave a switch fluorescence ratio of 1.25. CCGACTCAAC gave a switch fluorescence ratio of 3.23. CCGAGCCGG was tested, and the switch fluorescence ratio was 1.07. Work on CCGAGCCTAT yielded a switch fluorescence ratio of 2.36. CCGAGGAGTT gave a switch fluorescence ratio of 1.04. Work on CCGAGGCCGG yielded a switch fluorescence ratio of 1.13. Work on CCGAGTCAGT yielded a switch fluorescence ratio of 4.5. CCGAGTCATC was tested, and the switch fluorescence ratio was 2.26. In the case of CCGAGTGGTT, the switch fluorescence ratio was 1.04. Work on CCGAGTTCGA yielded a switch fluorescence ratio of 1.23. Work on CCGAGTTTCG yielded a switch fluorescence ratio of 1.04. Work on CCGATCGGAA yielded a switch fluorescence ratio of 1.13. CCGATGGGGC gave a switch fluorescence ratio of 1.1. CCGATTAAGT gave a switch fluorescence ratio of 1.02. In the case of CCGATTTAGA, the switch fluorescence ratio was 1.58. CCGCAAATCG showed a switch fluorescence ratio of 4.03. CCGCACGTCG showed a switch fluorescence ratio of 1.53. CCGCAGCCCA gave a switch fluorescence ratio of 5.64. In the case of CCGCAGTGGA, the switch fluorescence ratio was 2.76. For CCGCCCACTT, the switch fluorescence ratio was 1.74. With CCGCCTCGGG the switch fluorescence ratio was 1.21. For CCGCTATGTT, the switch fluorescence ratio was 3.35. CCGCTCTCTT was tested, and the switch fluorescence ratio was 2.14. Sequence CCGCTCTTGT has a switch fluorescence ratio of 1.24. For CCGCTGTCGG, the switch fluorescence ratio was 1.1. CCGCTTAGAG showed a switch fluorescence ratio of 3.57. For CCGCTTGGAG, the switch fluorescence ratio was 1.2. With CCGCTTTGGC the switch fluorescence ratio was 1.86. In the case of CCGGAACGGA, the switch fluorescence ratio was 0.929. Work on CCGGAACTTG yielded a switch fluorescence ratio of 1.02. Sequence CCGGACAAGG has a switch fluorescence ratio of 1.05. In the case of CCGGACGGGC, the switch fluorescence ratio was 1.14. Work on CCGGAGTCGT yielded a switch fluorescence ratio of 2.11. CCGGATCGTG gave a switch fluorescence ratio of 0.941. For CCGGATCT, the switch fluorescence ratio was 1.04. CCGGCCACGG was tested, and the switch fluorescence ratio was 1.02. In the case of CCGGCCCCAT, the switch fluorescence ratio was 1.39. CCGGCCTAAT gave a switch fluorescence ratio of 1.12. CCGGCGTGTA gave a switch fluorescence ratio of 1.1. With CCGGCTCTGT the switch fluorescence ratio was 1.04. For CCGGGACTCG, the switch fluorescence ratio was 1.02. In the case of CCGGGTATGC, the switch fluorescence ratio was 2.17. With CCGGGTGGAA the switch fluorescence ratio was 0.991. CCGGGTTGAA showed a switch fluorescence ratio of 1.03. For CCGGTACAGA, the switch fluorescence ratio was 1.06. CCGGTACCCG showed a switch fluorescence ratio of 1.06. In the case of CCGGTAGAGG, the switch fluorescence ratio was 1.02. For CCGGTAGTAT, the switch fluorescence ratio was 1.19. With CCGGTCCAAG the switch fluorescence ratio was 1.17. In the case of CCGGTCTTAT, the switch fluorescence ratio was 1.03. Work on CCGGTGCAC yielded a switch fluorescence ratio of 1.87. CCGGTGCAGG was tested, and the switch fluorescence ratio was 1.28. Sequence CCGGTGGAAA has a switch fluorescence ratio of 1.05. Work on CCGGTGGACG yielded a switch fluorescence ratio of 0.961. Sequence CCGGTGTAGT has a switch fluorescence ratio of 1.06. CCGGTTATCT gave a switch fluorescence ratio of 1.06. In the case of CCGGTTATTT, the switch fluorescence ratio was 1. For CCGGTTGACA, the switch fluorescence ratio was 1.03. In the case of CCGTAAGCGG, the switch fluorescence ratio was 1.22. For CCGTAATGGT, the switch fluorescence ratio was 4.61. CCGTATCAGT showed a switch fluorescence ratio of 1.05. With CCGTATGACA the switch fluorescence ratio was 1.05. CCGTCAGGTA showed a switch fluorescence ratio of 1.02. For CCGTCCATT, the switch fluorescence ratio was 1.01. For CCGTCGTGCG, the switch fluorescence ratio was 1. CCGTCTAGTC gave a switch fluorescence ratio of 1.25. In the case of CCGTCTTAAC, the switch fluorescence ratio was 1.4.
